Source: the RNAGym collection of RNA variant scans (doi:10.7554/elife.90254)
The source gives no read counts; variants with many changes may rest on few reads.

B1: OR4K15 (parent)
chain: GUUAACGGUCAUAGGCCAUGGAAACUAGGAGCACCAUUUCGCUGCCAGUGAAGAAAUGAACAAAGAAAAUCUGGGCCAGGCAGGCAUCAAAAGAAAUAGUCUUGCGCUCAACCAGAAAGUCUGUAAUCAUUUUAAGGGUA

Variants of: B1
Test: self-cleavage, relative activity (ratio to wild type); higher = more cleavage; in vitro, sequencing; the parent is a self-cleaving ribozyme

Row | Variant | self-cleavage
1 | GUUAACGGUCAUAGGCCAUGGAAACUAGGAGCACCACUCCGCUGCCAGUGAAGAAAUGAACAGAGAAAAUCUGGGCCAGGCAGGCACCAAAAGAAAUAGUCUUGCGCUCAACCAGAAAGUCUGUAAUCAUUUUAAGGGUA [U37C U39C A63G U87C] | 0.48
2 | GUUAACGGUCAUAGGCCAUGGAAACUAGGAGCACCAUUUCGCUGCCAGUGGAGAAAUGAACAAAGAAAAUCUGGGCCAGGCAGGCACCAAAAGAAAUAGUCUUGCGCUCAACCAGAAAGUCUGUGAUCAUUUUAAGGGUA [A51G U87C A125G] | 0.09
3 | GUUAGCGGUCAUAGGCCAUGGAAACUAGGAGCACCACUUCGCUGCCAGUGAAGAAAUGAACAAAGAGAAUCUGGGCCAGGCAGGCAUCAAAAGAAAUAGUCUUGCGCUCAAACAGAAAGUCUGUAAUCAUUUUAAGGGUA [A5G U37C A67G C112A] | 0
4 | GUUAACGGUCAUAGGCCAUGGAAACUAGGAGCACCGUCUCGCUGCCAGUGAAGAAAUGAACGAAGAAGAUCUGGGCCAGGCAGGCAUCAAAAGAAAUAGUCUUGCGCUCAACCAGAAAGUCUGUAAUCAUUUUAAGGGUA [A36G U38C A62G A68G] | 1.75
5 | GUUAACGGUCAUAGGCCAUGGACACUAGGAGCACCAUUUCGCUGCCAGUGAAGAAAUGAACAAAGAAAAUCUGGGCCAGGCAGGCAUCAAAAGAAAUAGUCUUGCGCUCAACCAGGAGGUCUGUAAUCAUUUUAAGGGUA [A23C A116G A118G] | 0.93
6 | GUUAACGGUCAUAGGCCAUGGAAACUAGGAGCACCAUCUCGCUGCCAGUGAAGGAAUGAACAAAGAAAAUCUGGGCCAGGCAGGCAUCAAAAGAAAUAGUCUUGCGCUCAACCAGAAAGCCUGUAAUCAUUUUAAGGGUA [U38C A54G U120C] | 1.04
7 | GUUAACGGUCAUAGGCCAUGGAAACUAGGAGCACCACUUCGCUGCCAGUGAAGAAAUGAACAAAGAAAAUCUGGGCCAGGCAGGCUUCAAAAGAAAUAGUCUUGCGCUCAACCAGAAAGUCUGUAAUCAUUUUAAGGGUC [U37C A86U A140C] | 1.65
8 | GUUAACGGUCAUAGGCCAUGGAAACUAGGAGCACCGUUUCGCUGCCAGUGAAGAAAUGAACAAAGGAAAUCUGGGCCAGGCAGGCAUCAAAAGAAAUAGUCUUGCGCUCAACCAGAAAGUCAGUAAUCAUUUUAAGGGUA [A36G A66G U122A] | 2.04
9 | GUUAACGGUCAUAGGCCACGGAAACUGGGAGCACCAUUUCGCUGCCAGUGAAGAAAUGAACAAAGAAAAUCUGGGCCAGGCAGGCAUCAAAAGAAAUAGUCUUGCGCUCAGCCAGAAAGUCUGUAAUCACUUUAAGGGUA [U19C A27G A111G U130C] | 0.02
10 | GUUAACGGUCAUAGGCCAUGGAAACUUGGAGCAUCAUUUCGCUGCCAGUGAAGAAAUGAACGAUGGAAAUCUGGGCCAGGCAGGCAUCAAAAGAAAUAGUCUCGCGCUCAACCAGAAAGUCUGUAAUCAUUUUAAGGGUA [A27U C34U A62G A64U A66G U103C] | 0.59
11 | GUUAACGGUCAUAGGCCAUGGAAACUAGGAGCGCCAUUUCGCUGCCAGUGAAGAAAUGAGCAAAGAAAAUCUGGGCCAGGCAGGCAUCAAAAGAAAUAGUCUUGCGCUCAGCCAGAAAGUCUGUAAUCAUUUUAAGGGUA [A33G A60G A111G] | 0.02
12 | GUUAACGGUCAUAGGCCAUGGAAACUAGGAGCACCAUUUCGCUGCCAGUGUAGAAAUGAACAAGGAAAGUCUGGGCCAGGCAGGCAUCAAAAGAAAUAGUCUUGCGCUCAACCAGAAAGUCUGUAAUCGUUUUAGGGGUA [A51U A64G A69G A129G A135G] | 0.17
13 | GUUAACGGUCAUAGGCCAUGGAAACUAGGAGCACCAUUUCGCUGCCAGUGAAGAAAUGAACAAAGAAAAUCUGGGCCAGGCUGGCAUCAAAAGAAAUAGUCUUGCGCUCAACCGGAAAGUCUGUAAUCAUUAUAAGGGUA [A82U A114G U132A] | 0.05
14 | GUUAACGGUAGUAGGCCAUGGAAACUAGGAGCACCAUUUCGCUGCCAGUGAAGAAAUGAACAAAGAAAAUCUGGGCCAAGCAGGCAUCAAAAGAAAUAGUCUUGUGCUCAACCAGAAAGUCUGUAAACAUUUUAAGGGUA [C10A A11G G79A C105U U127A] | 0.03
15 | GUUAACGGUCAUAGGCCAUGGAAACUAGGAGCACCAUUUCGCUGCCAGUGAAGAAAUGAACAAAGAAAAUCUGGGCCAGGCAGGCAUCAAAAGGAAUAGUCCUGCGCUCGACCAGAAAGUCUGUAAUCAUUUUAAGGGUA [A94G U102C A110G] | 0.18
16 | GUUAACGGUCAUAGGCCAUGGAAACUAGGAGCACCAUUUCGCUGCCAGCGAAGAAAUGAACAGAGAAAAUCUGGGCCAGGCAGGCAUCAAAAGAAAUAGCCUUGCGCUCAACCAGAAAGUCUGUAAUCAUUUUAAGGGUA [U49C A63G U100C] | 2.83
17 | GUUAACGGUCAUAGGCCAUGGAAACUAGGAGCACCACGUCGCUGCCAGUGAAGAAAUGAACAAAGAAAAUCUGGGCCAGGCAGGCAUCAAAAGAGAUAGUCUUGCGCUCAACCAGAAAGUCUGUAAUCAUUUUAAGGGUA [U37C U38G A95G] | 1.75
18 | GUUAACGGUCAUAGGCCAUGGAAACUAGGAGCACCAUUUCGCUGCCAGUGAAGAAAUGGACAAAGAAAAUCUGGGCCAGGCAGGCAUCAAAAGAAAUAGCCUUGCGCUCAACCAGAAAGUCUGUAAUCAUUUUGAGGGUA [A59G U100C A134G] | 2.3
19 | GUUAACGGUCAUAGGCCAUGGAAACUAGGGGCACCAUUUCGCUGCCAGUGAAGAAAUGAACAAAGAAAAUCUGGGCCAGGCUGGCAUCAAAAGAAAUAGUCUUGCGCUCAACCAGAAAGUCUUUAAUCAUUUUAAGGGUA [A30G A82U G123U] | 0.34
20 | GCUAACGGUCAUAGGCCAUGGAAACUAGGAGCACCAUUUCGCUGCCAGUGAAGAAGUGAACAAAGAAAUUCUGGGCCAGGCAGGCAUCAAAAGAAGUAGUCUUGCGCUCAACCAGAAAGUCUGUAAUCAUUUUAAGGGUA [U2C A56G A69U A96G] | 0.8
21 | GUUAACGGUCAUAGGCCAUGGAAACUAGGAGCACCAUUUCGCUGCCAGUGAAGAAAUGAACAAAGAAAAUCAGGGCCAGGCAGGAAUCAAAAGAAAUAGUCUUGCGCUCAACCAGAAAGUCAGUAAUCAUUUUAAGGGUA [U72A C85A U122A] | 0.13

Row | Variant | self-cleavage
22 | GUUAACGGUCAUAGGCCAUGGAAACUAGGAGCACCAUUUCGCUGCCAGUGAGGAAAUGAACGAAGAAAAUCUGGGCCAGGCAGGCAUCAGAAGAAAUAGUCUUGCGCUCAACCAGAAAGUCUGUAAUCAUUUUAAGGGUA [A52G A62G A90G] | 0.83
23 | GUUAACGGUCAUAGGCCAUAGAAACUAGGAGCACCAUUUCGCUGCCAGUGAAGAAAUGGACAAAGAAAACCUGGGCCAGGCAGGCAUCAAAAGAAAUAGUCUUGCGCUCAACCAGAAGGUCUGAAAUCAUUUUAAGGGUA [G20A A59G U70C A118G U124A] | 0.09
24 | GUCAACGGCCAUGGGCCAUGGAAACUAGGAGCACCAUUUCGCUGCCAGUGAAGAAGUGAACAAAGAAAACCUGGGCCAGGCAGGCAUCAAAAGAAAUAGUCUUGCGCUCAACCAGAAAGUCUGUAAUCAUUUUAAGGGUA [U3C U9C A13G A56G U70C] | 0.65
25 | GUUAACGGUCAUAGGCCAUGGAAACCAGGAGCACCAUUUCGCUGCCAGUGAAGGAAUGAACAAAGAAAAUCUGGGCCAGGCAGGCGUCAAAAGAAAUAGUCUUGCGCUCAACCAGAAAGUCUGCAAUCAUUUUAAGGGUA [U26C A54G A86G U124C] | 0.49
26 | GUUAACGGUCAUAGGCCAUGGAAACUAGGAGCACCAUUUCGCUGCCAGUGAAGAAGUGAACAAAGAAAAUCUGGGCCAGGCAGGCAUCAAAAGAAAUAAUCUUGCGCUCAACCAGAAAGCCUGUAAUCAUUUUAAGGGCA [A56G G99A U120C U139C] | 0
27 | GUUAACGGUCAUAGACCUUGGAAACUAGGGGCACCAUUUCGCUGCCAGUGUAGAAAUGAACAGAGAAAAUCUGGGCCAGGCAGGCAUCAAAAGGAGUAGUCUUGCGCUCAACCAGAAAGUCUGUAAUCAUUUUAAGGGUA [G15A A18U A30G A51U A63G A94G A96G] | 1.66
28 | GUUAUCGGUCAUAGGCCAAGGAAACUAGGAGCACCAUUUCGCUGCCAGUGAAGAAAUGAACAAAGAAAAUCUGGGCCAGGCAGGCAUCAAAAGAAAUAGUCUGGCGCUCAACCAGAAAGUCUGUAAUCACUUUAAGGGUA [A5U U19A U103G U130C] | 0.02
29 | GUUAACGGUCAUAGGCCAUGGAAACUAGGAGCACCAUUUCGCUGCCAGUGAAGAAAUGGACAAAGAAAAUCUGGGCCAGGCAGGCAUCAAAAGAAAUAGUCUUGCGCCCAACCAGAAAGUCUGUAAUCAUUUUAAGGGUG [A59G U108C A140G] | 0.02
30 | GUUAACGGUCAUAGGCCACGGAAACUAGGAGCACCACUUCGCUGCCAGUGAAGAAAUGAACAAAGAAAAUCUGGGCCAGGCAGGCAUCAAAGGAAAUAGUCUUGCGCUCAACCAGAAAGUCUGUAAUCAUUUUAAGGGUA [U19C U37C A92G] | 1.14
31 | GUUAACGGUCAUAGGCCAUGGAAACUAGGAGCUCCAUUUCGCUGCCAGAGAAGAAGUGAACAAAGAAAAUCUGGGCCAGGCAGGCAUCAAAAGAAAUAGUCUUGCGCUCAACCAGAAAGUCUGUAAUCAUUUUAAGGGUA [A33U U49A A56G] | 1.73
32 | GUUAACGGUCAUAGGCCAUGGAAACUAGGAGCACCAUUUCGCUGCCAGUGGAGAAAUGAACGAAGAAAAUCUGGGCCAGGCAGGCAUCAAAAGAAAUAGUCUUGCGCUCAGCCAGAAAGUCUGUAAUCAUUUUAAGGGUA [A51G A62G A111G] | 0.02
33 | GUUAACGGUCAUAGGCCACGGAAACUAGGAGCACCAUUUCGCUGCCAGUGAAGAAAUGAACAAAGAAAAUCUGGCCCAGGCAGGCAUCAGAAGAAAUAGUCUUGCGCUCAACCAGAAAGUCUGUAAUCAUUUUAAGGGUA [U19C G75C A90G] | 0
34 | GUUAACGGUCAUAGGCCAUGGAAACUAGGGGCACCAUUUCGCGGCCAGUGAAGAAAUGAACAAAGAAAAUCUGGGCCAGGCAGGCAUCAAAAGAAAUAGUCUUGCGCUCAACCAGAAAGUCUGUAAUCAUUUCAAGGGUA [A30G U43G U133C] | 2.34
35 | GCUAACGGUCAUAGGCCAUGGAAACUAGGAGCACCAUUUCGCUGCCAGUGCAGAAAUGAACAAAGAAAAUCUGGGCCAGGCAGGCAUCAAAAGAGAUAGUCUUGCGCUCAACCAGAAAGUCUGUAAUCAUUUUAAGGGUA [U2C A51C A95G] | 0.91
36 | GUUACCGGUCAUAGGCCAUGGAAACUAGGUGCACCAUUUCGCUGCCAGUGAAGAAGUGAACAAAGAAAAUCUGGGCCAGGCAGGCAUCAAAAGAAAUAGUCUUGCGCUCAACCAGAAAGUCUGUAAUCAUUUUAAGGGUA [A5C A30U A56G] | 1.94
37 | GUUAACGGUCAUAGGCCAUGGAAACUAGGAGCACCAUUUCGCCGCCAGUGGAGAAAUGAACAAAGAAAAUCUGGGCCAGGCAGGCAUCAAAUGAAAUAGUCUUGCGCUCAACCAGAAAGUCUGUAAUCAUUUUAAGGGUA [U43C A51G A92U] | 1.46
38 | GCUAACAGUCAUAGGCCAUGGAAACUAGGAGCACCAUUUCGCUGCCAGUGAAGAAAUGAACAAGGAAAACCUGGGCCAGGCAGGCAUCAAAAGAAAUAGUCUUGCGCUCAACCAGAAAGUCUGCAAUCAUUUUAAGGGUA [U2C G7A A64G U70C U124C] | 0.45
39 | GUUAACGGUCAUAGGCCAUGGAAACUAGGAGCACCAUUUCGCUGCCAGUGAAGAGAUGAACAAAGAAAAUCUGGGCCAGGCAGGCAUCAAAAGAAAUAGUCUUGCGCUCAGCCAGAAAGUCUGUAACCAUCUUAAGGGUA [A55G A111G U127C U131C] | 0.01
40 | GUUAACGGUCAUAGGCCAUGGAAACUAGGAGCACCAUUUCGCUGCCAGUGGAGAAAUGAACAAAGAAAAUCUGGGCCAGGCUGGCAUCAAAAGAGAUAGUCUUGCGCUCAACCAGAAAGCCUGUAAUCAUUUUAAGGGUA [A51G A82U A95G U120C] | 0.43
41 | GUUAACGGGCAUAGGCCAUGGAAACUAGGAGCACCAUUUCGCUGCCAGUGAAGAAAUGAACAGAGGAAAUCUGGGCCAGGCAGGCAUCAAAAGAAAUUGUCUUGCGCUCAACCGGAAAGUCUGUAAUCAUUUUAAGGGUA [U9G A63G A66G A98U A114G] | 1.14
